Assay results reported in the supplement of paper PMC7125110.
± gives the standard error. Variants at the background level are over-represented here.

B1: glmS ribozyme (parent)
chain: AUAAAAGCGCCAGAACUACAGAAAUGUAGUUGACGAGGAGGAGGUUUAUCGAAUUUUCGGCGGAUGCCUCCAAA

Assays:
Conditions in all cases: with glucosamine-6-phosphate
glucosamine-6-phosphate [1] = variants of: B1; assay: self-cleavage kobs at 640 uM GlcN6P; higher = faster cleavage; RNA array
Outline: (§1)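 Glucosamine-6-phosphate (40 μM to 10 mM) in HEPES/KCl/Mg(OAc)2 buffer was flowed over sequenced MiSeq chips, and tiles were imaged over ~14 h. Barcoded ribozyme variants there had been transcribed in situ by E. coli RNA polymerase and were tracked through a hybridised Cy3 probe at 37 °C. One- or two-exponential decay fits to per-tile medians, normalised to baseline and to non-cleaving reference variants, gave kobs. kcat and KM came from weighted Michaelis–Menten fits across concentrations.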

glucosamine-6-phosphate [2] = variants of: B1; assay: self-cleavage kobs at 160 uM GlcN6P; higher = faster cleavage; RNA array
Outline: as §1

glucosamine-6-phosphate [3] = variants of: B1; assay: self-cleavage kobs at 2500 uM GlcN6P; higher = faster cleavage; RNA array
Outline: as §1

glucosamine-6-phosphate [4] = variants of: B1; assay: self-cleavage kobs at 10000 uM GlcN6P; higher = faster cleavage; RNA array
Outline: as §1

Row | Variant | self-cleavage kobs at 640 uM GlcN6P (glucosamine-6-phosphate [1]) | self-cleavage kobs at 160 uM GlcN6P (glucosamine-6-phosphate [2]) | self-cleavage kobs at 2500 uM GlcN6P (glucosamine-6-phosphate [3]) | self-cleavage kobs at 10000 uM GlcN6P (glucosamine-6-phosphate [4])
1 | A14C G32C U56C G59U A64G | < 1e-05 s⁻¹ | < 1e-05 s⁻¹ |  | 
2 | C16A A39U U54C | 0.000107 ± 2.9e-05 s⁻¹ |  | 0.000434 ± 9.7e-05 s⁻¹ | 0.000811 ± 0.00017 s⁻¹
3 | A15C U30G U31G | 0.0146 ± 0.0069 s⁻¹ | 0.00201 ± 0.00083 s⁻¹ | 0.00946 ± 0.0035 s⁻¹ | 
4 | A15G U56C C67G C70A | < 1e-05 s⁻¹ |  | < 1e-05 s⁻¹ | 
5 | C16U G35C G37A | < 1e-05 s⁻¹ |  |  | 
6 | A15C G41U A52G C71G | < 1e-05 s⁻¹ |  | < 1e-05 s⁻¹ | 
7 | C16A C71A | 7.22e-05 ± 1.1e-05 s⁻¹ | 3.26e-05 ± 1.3e-05 s⁻¹ | 0.000187 ± 3.1e-05 s⁻¹ | 0.000114 ± 1.2e-05 s⁻¹
8 | A15G G35C A42U C50G C68A C71U | < 1e-05 s⁻¹ |  | < 1e-05 s⁻¹ | 
9 | C16A G43U G63C C68U | < 1e-05 s⁻¹ | < 1e-05 s⁻¹ | < 1e-05 s⁻¹ | 
10 | C16U G40A U69G | < 1e-05 s⁻¹ |  | < 1e-05 s⁻¹ | 
11 | A15G U49G G63U | < 1e-05 s⁻¹ |  |  | 
12 | C16A A52G G63U G66U | < 1e-05 s⁻¹ | < 1e-05 s⁻¹ |  | 
13 | A15C U56C | 0.000202 ± 3.2e-05 s⁻¹ | 8.66e-05 ± 1.7e-05 s⁻¹ | 0.000708 ± 9.2e-05 s⁻¹ | 0.000914 ± 9.9e-05 s⁻¹
14 | A14C G59C C71A | < 1e-05 s⁻¹ |  |  | 
15 | C16U U30A G41A A52U | < 1e-05 s⁻¹ | < 1e-05 s⁻¹ | < 1e-05 s⁻¹ | 
16 | A15U G38C G43C G51U | < 1e-05 s⁻¹ | < 1e-05 s⁻¹ |  | < 1e-05 s⁻¹
17 | C16A U31C A33G C34A A52U C68U | < 1e-05 s⁻¹ |  |  | 
18 | A14U U30A C34G | < 1e-05 s⁻¹ |  |  | 
19 | A14G C16U U45A G51U C61G | < 1e-05 s⁻¹ |  |  | 
20 | A14C G29A A42U U65G | < 1e-05 s⁻¹ |  |  | 
21 | A15C U65A | 0.000177 ± 2.9e-05 s⁻¹ | 3.48e-05 ± 1.4e-05 s⁻¹ | 0.000234 ± 5.7e-05 s⁻¹ | 0.000807 ± 0.00016 s⁻¹
22 | A15G C16G U55A | 0.000405 ± 0.00011 s⁻¹ | 0.000205 ± 6e-05 s⁻¹ |  | 
23 | A14C A15G G38U G59A | < 1e-05 s⁻¹ |  | < 1e-05 s⁻¹ | 
24 | A15U G37C A39G G41U | < 1e-05 s⁻¹ |  | < 1e-05 s⁻¹ | 
25 | G13U G35A | < 1e-05 s⁻¹ | < 1e-05 s⁻¹ |  | 
26 | G13U U55G U56C | 7.76e-05 ± 2.4e-05 s⁻¹ |  |  | 
27 | A15C A33G U45A G63C | < 1e-05 s⁻¹ |  |  | 

Row | Variant | self-cleavage kobs at 640 uM GlcN6P (glucosamine-6-phosphate [1]) | self-cleavage kobs at 160 uM GlcN6P (glucosamine-6-phosphate [2]) | self-cleavage kobs at 2500 uM GlcN6P (glucosamine-6-phosphate [3]) | self-cleavage kobs at 10000 uM GlcN6P (glucosamine-6-phosphate [4])
28 | A15U G37C U47A | < 1e-05 s⁻¹ |  |  | 
29 | C16U G37A U54C | 0.000373 ± 8.1e-05 s⁻¹ |  | 0.000599 ± 0.00013 s⁻¹ | 0.00176 ± 0.00031 s⁻¹
30 | A15C U30A G40C C61U | < 1e-05 s⁻¹ |  | < 1e-05 s⁻¹ | 
31 | A14U C61A G66A | < 1e-05 s⁻¹ |  |  | 
32 | C16G U56C C58U | < 1e-05 s⁻¹ |  |  | 
33 | A15C G38U G44A | < 1e-05 s⁻¹ |  | < 1e-05 s⁻¹ | 
34 | A15G A33U A42C | < 1e-05 s⁻¹ |  |  | 
35 | C16G G35U G38U G59U C70A | < 1e-05 s⁻¹ | < 1e-05 s⁻¹ | < 1e-05 s⁻¹ | 
36 | A14G C34U | < 1e-05 s⁻¹ |  |  | < 1e-05 s⁻¹
37 | A14G C34A | < 1e-05 s⁻¹ | < 1e-05 s⁻¹ |  | 
38 | A15G A39C G60C C70A | < 1e-05 s⁻¹ |  | < 1e-05 s⁻¹ | 
39 | A15U A53G G63C | < 1e-05 s⁻¹ |  |  | 
40 | C16A G32U | 5.63e-05 ± 1e-05 s⁻¹ |  | 0.000143 ± 2.8e-05 s⁻¹ | 0.000363 ± 6.7e-05 s⁻¹
41 | A15G C16A A39U G62C | < 1e-05 s⁻¹ |  | < 1e-05 s⁻¹ | 
42 | A14U A52G | 7.16e-05 ± 1e-05 s⁻¹ | 5.44e-05 ± 1.7e-05 s⁻¹ | 0.000166 ± 1.6e-05 s⁻¹ | 0.000325 ± 4.4e-05 s⁻¹
43 | A15C A64U | < 1e-05 s⁻¹ | < 1e-05 s⁻¹ |  | 
44 | A14C G35A | < 1e-05 s⁻¹ | < 1e-05 s⁻¹ | < 1e-05 s⁻¹ | < 1e-05 s⁻¹
45 | A15U C34A G35U A36U | < 1e-05 s⁻¹ |  |  | 
46 | A15C G29U A39U G59U C70U | < 1e-05 s⁻¹ |  | < 1e-05 s⁻¹ | 
47 | A14U A42C | < 1e-05 s⁻¹ | < 1e-05 s⁻¹ | < 1e-05 s⁻¹ | < 1e-05 s⁻¹
48 | C16U U56G G60A A64U | < 1e-05 s⁻¹ | < 1e-05 s⁻¹ | < 1e-05 s⁻¹ | 
49 | C16G G35U U45G | < 1e-05 s⁻¹ | < 1e-05 s⁻¹ | < 1e-05 s⁻¹ | 
50 | A14C A42U G59U C67A | < 1e-05 s⁻¹ |  |  | 
51 | A14U A48U G51A A52G | < 1e-05 s⁻¹ |  | < 1e-05 s⁻¹ | 
52 | A15G A53U G60U | < 1e-05 s⁻¹ | < 1e-05 s⁻¹ | < 1e-05 s⁻¹ | 
53 | A15U A42C C70A | < 1e-05 s⁻¹ |  | < 1e-05 s⁻¹ | 
54 | A14G A39G U69A | 0.000936 ± 0.00031 s⁻¹ | 0.000285 ± 7.7e-05 s⁻¹ | 0.000786 ± 0.00024 s⁻¹ | 
